In the supplement of paper PMC11417369:
± gives the standard deviation of the averaged measurements. Some of the results follow.

System: PfAP2-I AP2 domain 3 (GST-tagged)
Assay: gcPBM binding intensity (ln(normalized median fluorescence intensity)); higher = stronger DNA binding
Method in brief: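 Binding intensity is defined as the maximum Masliner-normalised natural-log median intensity across replicate spots for either probe orientation. It was measured on an Agilent 4 × 180k array of primer-extended double-stranded 36-bp intergenic genomic probes and negative controls, to which GST-tagged P. falciparum DNA-binding domains made in E. coli were applied for 1 h in 1× PBS with 1% milk, 0.2 mg/ml BSA, 0.5% salmon testes DNA and 0.03% Triton X-100. Detection was by Alexa488 anti-GST antibody and scanning at 488 nm.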

Sequence | gcPBM binding intensity (ln)
ATATATATATTAACAATACACACGTGTATACCTTAT [CACACA_site2217] | 8.94 ± 0.11
ATGTTTTGTAAAATGATTAAATATTAAGATTCAATA [CACACA_negctrl_site1743] | 7.44 ± 0.42
TAGTAAATAACAAAAGGAAAAATTAATGAGGCAAAA [TGCATGCA_negctrl_site526] | 7.81 ± 0.88
CATATACACGAACACACACACATATATATATATATA [CACACA_site4437] | 9.68 ± 0.54
CATCATAGCATTCCTCGTACAAATATAAACATATCA [XGTACX_site2711] | 7.92 ± 0.57
CTTAGAGTATTTAAATGTACACGTTTGTATATGTAT [XGTACX_site1767] | 8.09 ± 0.52
TTTATAAAATTATTTGCATGTAACAATTATAAATTG [TGCATGCA_site1026] | 7.43 ± 0.59
TTTTTTTTTCTTTCTCTTTAAATATTAATTAAAAAA [GTGCAC_negctrl_site90] | 7.68 ± 0.6
AATGTGAAATATAAATGTACATAAATATATATATAT [XGTACX_site8710] | 9.21 ± 0.3
AAAATATAAATATATTGTACTGTTATATAATAAAAT [XGTACX_site2132] | 7.56 ± 0.41
TAACTATCATGTATTACACACAATATTTATTATAGA [CACACA_site7301] | 7.69 ± 0.49
TTCTTTTTTCTTTATGGTACGTGTAATATATATCAA [XGTACX_site7960] | 8.26 ± 0.62
TACATATTTTTTATGTGTACATATTTTTTATGTGTG [XGTACX_site444] | 7.61 ± 0.057
CCCAATAATTAAACAACACACATATATATATGTAAT [CACACA_site3084] | 7.74 ± 0.67
ATAAAATACAGATAAACACACATATAAACACCCATA [CACACA_site5381] | 8.21 ± 0.14
CTTTATTTTTTATACACACACAATATGTATAAATAT [CACACA_site7638] | 8.14 ± 0.45
TATAAATAATGTTAAACACACATACCGATATATAAC [CACACA_site7306] | 7.77 ± 0.58
AAGCATTTCCATGGTGGTACTATACAAATAATAATT [XGTACX_site6193] | 7.76 ± 0.64
AAAAAAATTTGTATCACACACGTATTATAAAAAAAT [CACACA_site4182] | 7.72 ± 0.66
TATTAAACTAAATGTAGTACATACACAAACGTAATC [XGTACX_site4905] | 7.88 ± 0.65
TATTCGTGCAATAATGGTACACTTATAAATTATTCA [XGTACX_site1430] | 10.7 ± 0.71
TCTCTCTTATAAAATACACACGAACAATCATATTAT [CACACA_site8065] | 7.69 ± 0.54
ATTTTTTTTTTTAAATGTACATAATATATATATAAT [XGTACX_site2686] | 7.79 ± 0.43
CGAACATTATAAATGTCATTTTTTCCAACTTGATCT [GTGCAC_negctrl_site501] | 7.28 ± 0.61
